Data as given in the supplement of paper PMC3334620.
In all, about 33,000 sequences were measured (“E-score (-0.5 to 0.5)”: median about -0.016, highest 2% from about 0.31 on). The list shows a part of the results.

Each sequence was assayed against Cst6 (UniProt P40535) (assay: PBM E-score (8-mer binding enrichment) (E-score (-0.5 to 0.5)); higher = stronger / more preferred TF binding; most listed sequences are background and not binding sites). Conditions: protein concentration: 200 nM; construct: GST-DNA-binding domain.
Outline: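 GST-tagged yeast TFs (full-length or DNA-binding domain) were made by PURExpress in vitro transcription/translation and applied at about 100-200 nM to universal all-10-mer Agilent arrays. The arrays were made double-stranded by primer extension, on fresh or once-stripped slides. Bound protein was detected with fluorescent anti-GST, and scans were normalised with masliner. Each ungapped eight-base word, pooled with its reverse complement, received an E-score (modified Wilcoxon-Mann-Whitney statistic) from the Universal PBM Analysis Suite.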

Row | Sequence | PBM E-score
1 | AAGGGGAC | -0.0979
2 | TGCTATAA | -0.102
3 | AATAAATT | 0.282
4 | AAGTGGAC | -0.11
5 | ATAGTGAG | -0.00785
6 | CACATGCA | -0.0423
7 | CCCTGTCG | -0.115
8 | AGCCTAAA | -0.102
9 | ATCAGGTA | 0.0812
10 | GTAGATCA | 0.106
11 | GAGATAAC | 0.0629
12 | GTAAGTAA | 0.128
13 | CGAGTAGC | -0.0482
14 | ATACAGAC | 0.128
15 | ATAGAGAC | 0.00551
16 | AGCTTCAC | -0.25
17 | CTTATTCC | -0.0469
18 | CGGCGACC | -0.0671
19 | TACCTGGA | -0.187
20 | AAAAGATC | 0.00127
21 | TGAAGTAA | 0.16
22 | ACTTAACC | 0.124
23 | GAGCTCCC | -0.36
24 | ATCAGGAG | -0.0553
25 | AGCGCCAC | -0.0603

Row | Sequence | PBM E-score
26 | GACAACGA | -0.0361
27 | ATCAATAC | 0.0933
28 | GAGATGCC | 0.0238
29 | CCCTTATC | 0.0093
30 | TAGGTCGA | -0.084
31 | CTGTGAAC | -0.069
32 | CTTTAGCC | 0.117
33 | GGCCCCTA | -0.342
34 | CATCGTGA | 0.0617
35 | ATAGTGGA | -0.0686
36 | CGTTCGTC | 0.18
37 | GTAGGCTA | 0.00685
38 | ATACAACA | 0.186
39 | ACAAACGG | 0.201
40 | AGAGCTCC | -0.365
41 | ACTCACTA | 0.162
42 | ATCGGCAG | -0.158
43 | AAGTGGGT | -0.0285
44 | AAGCGCGT | 0.0416
45 | AAGAGTAG | 0.0205
46 | ACATTCGC | -0.0173
47 | ACCAACGT | 0.0563
48 | CGTGAAGC | -0.0732
49 | TGAGGAAA | 0.125
50 | ACGGCTAC | 0.167

Row | Sequence | PBM E-score
51 | CAGTTAAG | 0.153
52 | CCGGACCC | -0.318
53 | AAGGACGC | -0.149
54 | ATGAAAAA | 0.25
55 | AGTTTCAG | 0.0546
56 | ACCGGTCT | -0.22
57 | CGCAAAGA | 0.104
58 | ATTAATGC | 0.139
59 | GAATGCAC | 0.0666
60 | ACCCGCTC | -0.266
61 | ATGGATCG | 0.0412
62 | GCTGCTCA | -0.139
63 | CACAAGAG | -0.0233
64 | AGAACTAC | 0.0296
65 | CACCGCTG | -0.0957
66 | GAAGCCAA | -0.0393
67 | ATGGCTCG | -0.0199
68 | CAGCATGC | -0.0959
69 | CGACAAGA | 0.0909
70 | CTCACTCA | 0.0247
71 | TGCGCGCA | 0.142
72 | ATCCTTCC | -0.297
73 | ATAGGGAA | -0.117
74 | GGCACTCA | -0.248
75 | AGGTCACG | 0.0374

Row | Sequence | PBM E-score
76 | GGTAGGAC | -0.265
77 | ATATTAGC | 0.142
78 | ATAGCGGC | -0.0163
79 | CCTAGCAC | -0.296
80 | AATGACAC | 0.273
81 | CATAGAGA | 0.0623
82 | CCGGACAG | -0.0759
83 | ACCACCGC | -0.347
84 | CAATTACA | 0.223
85 | AATGGCAA | 0.183
86 | AGACGCTA | -0.202
87 | CCCGCCTC | -0.196
88 | CCCGGAAG | -0.221
89 | CTGTACAC | 0.0113
90 | ACGTTCAC | 0.091
91 | ACTATAGC | -0.291
92 | CGGAAATC | -0.0948
93 | CTCGACGC | 0.146
94 | TAAGATTA | 0.159
95 | CCAGATGG | -0.162
96 | CCATCTAC | -0.121
97 | TACAATGA | 0.143
98 | GGTGAGGA | -0.00526
99 | CTAAATAA | 0.231
100 | GCAATCAA | 0.169

Row | Sequence | PBM E-score
101 | CCGCGACA | 0.0216
102 | ATTACCCC | -0.0251
103 | TAGCAAGA | 0.066
104 | GCTACTAC | 0.104
105 | ATTTGGAC | 0.103
106 | CGGTCATA | 0.298
107 | AAGCACGT | 0.0741
108 | TCGGACGA | 0.0361
109 | ACTAAAAT | 0.248
110 | AGCAACTG | -0.0634
111 | CTATTCCA | 0.181
112 | AATCCAGA | 0.0903
113 | ATGCGGCG | 0.343
114 | GTCCTGAA | -0.0565
115 | AACTCGTG | 0.0229
116 | AAACTGTT | 0.0724
117 | CTGGACAC | -0.306
118 | AACATTCT | 0.184
119 | CAGAAGAA | 0.135
120 | AGCCCGGG | -0.36
121 | AATCGCCC | -0.138
122 | AGGATCAT | -0.0669
123 | GCGGGGTA | -0.201
124 | CCACTGAC | 0.00175
125 | CCGTTTCG | 0.0771

Row | Sequence | PBM E-score
126 | AATTCGAC | -0.264
127 | ACAGTTCG | -0.0171
128 | CGCACCGA | 0.00906
129 | GATATCAC | 0.236
130 | CGTTGCAC | -0.0236
131 | TGGACAAA | -0.0229
132 | CACTGTCG | -0.116
133 | GGCCAGCC | -0.253
134 | ACAAGCTC | -0.261
135 | CGAAGGAC | -0.223
136 | ATTTATTA | 0.357
137 | TTTGAAAA | 0.259
138 | AATCAGAA | 0.00689
139 | ATCTCCAT | -0.107
140 | AATTTGAG | 0.179
141 | GGACTGAC | -0.0762
142 | ACCCCCCG | -0.351
143 | ACTATTTC | 0.0977
144 | GACTAGTA | 0.0969
145 | AATGACGC | 0.453
146 | GACGCGCA | 0.0636
147 | ATCGAGAG | -0.0727
148 | AGTGAGCA | -0.0752
149 | CGACGCGC | 0.0928
150 | TATCATAA | 0.144

Row | Sequence | PBM E-score
151 | CGAACCGC | 0.101
152 | AGGGGTAA | -0.166
153 | AACACCGG | 0.0585
154 | CGAGGCGC | 0.188
155 | AACCGGGG | -0.115
156 | CCTGTAGC | -0.267
157 | CTCTGGGC | -0.17
158 | GCCTTAAC | -0.173
159 | CTTGTGCA | -0.0617
160 | AGAGCGTA | -0.107
161 | TACGATGA | 0.291
162 | ACCCTACC | -0.103
163 | AGTATTGA | 0.176
164 | CCTCTGCG | -0.285
165 | AAACGACA | 0.118
166 | ACGTAAAG | 0.306
167 | GATCAGGA | -0.172
168 | GATAGATA | 0.115
169 | AAGATGGT | -0.0768
170 | ACAGGACT | -0.107
171 | CGAATTGA | 0.108
172 | GATTGCAC | 0.0615
173 | CTCCACCC | -0.331
174 | TGTGAAAA | 0.167
175 | ACATATAG | 0.123

Row | Sequence | PBM E-score
176 | AAGGAACT | -0.0892
177 | TCCTTCAA | -0.037
178 | ACGATGTG | 0.13
179 | TCCATCCA | -0.0853
180 | AGCTACGA | -0.12
181 | CATTCTCC | 0.128
182 | AAGGCGGG | -0.183
183 | CTCAGCCC | -0.377
184 | GTCGCTCA | -0.138
185 | CCTAGTCC | -0.337
186 | TCTGTACA | 0.0521
187 | AGATCTGA | -0.0662
188 | CGATTTTC | 0.276
189 | ACGCGTCG | 0.0914
190 | CGCGTGTA | -0.0143
191 | AATACACC | 0.138
192 | CGACCTAG | -0.107
193 | GATCATAC | 0.139
194 | AGGAATGG | -0.2
195 | AGACTTCC | -0.282
196 | CTTTGTCA | 0.13
197 | ACCGCAAG | -0.0198
198 | GCTTGAAA | 0.0965
199 | GCGCTTCC | -0.126
200 | ATAACGTC | 0.38

Row | Sequence | PBM E-score
201 | GGCAGACA | -0.174
202 | GCCCCAAA | -0.191
203 | TCGCTTCA | -0.179
204 | GTCAGGGA | -0.115
205 | AGCATAAC | -0.0272
206 | GCTCGGTA | -0.218
207 | TACGGATA | 0.114
208 | ATTGACTC | 0.0413
209 | ATGTTCGA | 0.0764
210 | CAAAATAA | 0.238
211 | ACGTCCTC | -0.0815
212 | AGATACGC | 0.0494
213 | CACATATC | 0.0869
214 | ATCTGAGA | -0.0864
215 | ATTCTACC | 0.0596
216 | GATGACCA | 0.101
217 | ATACAAGC | 0.0788
218 | CGACTGGC | -0.132
219 | ACTTTATA | 0.264
